Laboratory results reported in the supplement of paper PMC10320760.
The data scatter; read single values as rough.

B1: Ydj1; a variant is named by its letters at X, in order (parent)
chain: MVKETKFYDILGVPVTATDVEIKKAYRKCALKYHPDKNPSEEAAEKFKEASAAYEILSDPEKRDIYDQFGEDGLSGAGGAGGFPGGGFGFGDDIFSQFFGAGGAQRPRGPQRGKDIKHEISASLEELYKGRTAKLALNKQILCKECEGRGGKKGAVKKCTSCNGQGIKFVTRQMGPMIQRFQTECDVCHGTGDIIDPKDRCKSCNGKKVENERKILEVHVEPGMKDGQRIVFKGEADQAPDVIPGDVVFIVSERPHKSFKRDGDDLVYEAEIDLLTAIAGGEFALEHVSGDWLKVGIVPGEVIAPGMRKVIEGKGMPIPKYGGYGNLIIKFTIKFPENHFTSEENLKKLEEILPPRIVPAIPKKATVDECVLADFDPAKYNRTRASRGGANYDSDEEEQGGEGVQCXXX

Variants of: B1
Experiment: enrichment factor, frequency at 37 °C / frequency at 25 °C (thermotolerance selection) (ratio); higher = more growth at 37 °C, higher likelihood of farnesylation
Details: with Saccharomyces cerevisiae ydj1Δ (yWS304); selective temperature 37 °C; reference temperature 25 °C
Description: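 Pooled library of all 8,000 Ydj1-CXXX C-terminal motif variants (native CASQ replaced by C + three variable residues, one codon per amino acid) expressed from a CEN plasmid in S. cerevisiae ydj1Δ (yWS304). The library was grown in SC-Ura liquid to A600 ~2 (~8 generations) at permissive 25 °C or selective 37 °C. Reads from 8 and 7 replicates were pooled and variants counted by NGS. Enrichment factor = frequency at 37 °C / frequency at 25 °C, with a +1 correction; it reports Ydj1-dependent thermotolerance, used as a read-out of farnesylation by yeast FTase.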

Variant | enrichment factor
CIM | 1.03
RIM | 0.625
SIM | 0.559
TIM | 0.632
VIM | 1.05
WIM | 2.32
YIM | 2.7
DIM | 1.08
EIN | 2.37
AIN | 3.86
FIN | 0.671
GIN | 1.79
HIN | 5.21
IIN | 2.24
KIN | 1.74
LIN | 5.13
MIN | 1.74
NIN | 2.73
PIN | 1.54
QIN | 2.9
CIN | 1.08

Variant | enrichment factor
RIN | 1.74
SIN | 1.94
TIN | 1.13
VIN | 0.802
WIN | 3.86
YIN | 5.41
DIN | 2.3
EIP | 0.154
AIP | 0.153
FIP | 7.72
GIP | 0.16
HIP | 1.81
IIP | 0.15
KIP | 0.211
LIP | 0.182
MIP | 0.214
NIP | 0.217
PIP | 0.139
QIP | 0.156
CIP | 1.23
RIP | 0.122

Variant | enrichment factor
SIP | 0.261
TIP | 0.134
VIP | 0.155
WIP | 1.99
YIP | 3.26
DIP | 0.193
EIQ | 2.44
AIQ | 1.83
FIQ | 1.88
GIQ | 1.26
HIQ | 3.02
IIQ | 1.33
KIQ | 2.81
LIQ | 2.81
MIQ | 1.53
NIQ | 3.29
PIQ | 1.05
QIQ | 3.56
CIQ | 0.836
RIQ | 1.48
SIQ | 1.06

Variant | enrichment factor
TIQ | 0.847
VIQ | 0.855
WIQ | 1.82
YIQ | 1.78
DIQ | 2.98
EIR | 1.34
AIR | 1.73
FIR | 0.47
GIR | 0.366
HIR | 1.18
IIR | 1.88
KIR | 0.515
LIR | 1.22
MIR | 1.31
NIR | 1.43
PIR | 1.19
QIR | 1.61
CIR | 1.05
RIR | 0.946
SIR | 1.6
